In all, about 48,000 compounds went through this assay and about 450 (0.94%) were called active. Another 19% or so got no clear call; they are omitted. The call rests on the fitted dose curve; in most records, active means well fitted inhibition curve with a large enough effect; inconclusive means small, poorly fitted or top-dose-only effect; inactive means no such curve, though single readings can be large or run the other way. The list shows a part of the results.
Assay: Primary qHTS for Identification of Small Molecule Inhibitors of Huntingtin Promoter Activity; further: nearly all actives have a fitted effect of over 50% in size
Conditions: HEK293 HTT promoter firefly luciferase reporter (activity 0% = vehicle and -100% = no light), 24 h; series mostly up to 57.5 µM; activity change, negative = inhibition: at the top concentration
How it was run: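 Luminescence was read after Dual-Glo reagent and a 10 min room-temperature incubation. Values were normalized to vehicle (0% activity) and zero RLU (-100% activity). Reporter HEK293 cells had been exposed to compounds (up to 57.5 uM final) for 24 h.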
For `O=C(Cn1c(=O)c2cccn2c2ccccc21)Nc1cc(F)ccc1F`, the “activity change, negative = inhibition” value was inactive: -6.45%. In the case of `CCOc1ccc(N(C(=O)Cn2nnc3ccccc32)C(C(=O)NCc2ccccc2)c2ccc(OC)cc2)cc1` (stereo unspecified), the “activity change, negative = inhibition” value is reported as inactive: -5.27%. In the case of `COc1ccc(-c2[nH]ncc2C(=O)NCc2ccccc2C)cc1`, the “activity change, negative = inhibition” value is reported as inactive: -21.1%. With `CC(=O)N1CCCc2cc(S(=O)(=O)N3CCC(C(=O)NCc4ccc(C)cc4)CC3)ccc21` the “activity change, negative = inhibition” value was inactive: -11.2%. For `Cc1onc(-c2ccccc2Cl)c1C(=O)Oc1cc(F)cc(F)c1`, the “activity change, negative = inhibition” value was inactive: -35.4%. For `COC(=O)c1ccccc1NC(=O)Cn1c(=O)n(-c2cccc(OC)c2)c(=O)c2c(C)c(C(=O)N(C)C)sc21`, the “activity change, negative = inhibition” value was inactive: 4.43%. With `CCC(C(=O)NCCc1ccc(SC)cc1)n1nc(C)c2sc3ccccc3c2c1=O` (stereo unspecified) the “activity change, negative = inhibition” value was inactive: -19%. With `CCN(CC)CCNC(=O)c1cn(CC)c2ccc(S(=O)(=O)N3CCOCC3)cc2c1=O` the “activity change, negative = inhibition” value was inactive: -7.31%. For `Cc1ccc(CCNC(=O)Cn2nc(-c3ccc(C)cc3)ccc2=O)cc1`, the “activity change, negative = inhibition” value was inactive: -21.2%. For `COc1ccc(OCC(=O)OCc2cc(=O)n3nc(C4CCCCC4)sc3n2)cc1`, the “activity change, negative = inhibition” value was inactive: -13.1%. In the case of `CC(=O)Nc1cccc(NC(=O)C(=O)NCCc2sc(-c3ccccc3)nc2C)c1`, the “activity change, negative = inhibition” value is reported as inactive: -22.2%. In the case of `O=C(Cn1ncc2ccc(Cl)cc21)NCc1ccc(F)cc1`, the “activity change, negative = inhibition” value is reported as inactive: 12%. In the case of `OCc1c[nH]c2ccccc12`, the “activity change, negative = inhibition” value is reported as inactive: -7.84% [at 116 µM]. With `Cc1ccc(C)c(NC(=O)CSc2ncc(S(=O)(=O)c3ccc(C)c(Cl)c3)c(=O)[nH]2)c1` the “activity change, negative = inhibition” value was inactive: -17.5%. For `COCCNCCCn1c(C(=O)CF)c(-c2ccc(C)cc2)c2c(N)ncnc21`, the “activity change, negative = inhibition” value was inactive: -5.33%. For `COc1ccc(Cn2c(SCc3ccc(C(=O)NC(C)C)cc3)nc3cccnc32)cc1`, the “activity change, negative = inhibition” value was inactive: -18.8%. In the case of `C=C1[C@H](n2cnc3c(=O)[nH]c(N)nc32)C[C@H](O)[C@H]1CO`, the “activity change, negative = inhibition” value is reported as inactive: -1.96%. With `Cc1c(Cl)cccc1NC(=O)Nc1nnc(N2CCCCCC2)s1` the “activity change, negative = inhibition” value was inactive: -11.5%. With `Cc1ccc(C(=O)Nc2cccc(C(=O)O)c2)cc1S(=O)(=O)N1CCCC1` the “activity change, negative = inhibition” value was inactive: 22.9%. In the case of `CCC1CN(C(=O)N2CCC(C(=O)NCc3cccc(C)c3)CC2)c2ccccc2O1` (stereo unspecified), the “activity change, negative = inhibition” value is reported as inactive: -24.9%. For `O=C(Cn1c(=O)nc(-c2ccccc2F)c2cc(Cl)ccc21)N1CCN(c2ccccc2F)CC1`, the “activity change, negative = inhibition” value was inactive: -11.2%. For `CCCCC(CC)CNC(=O)CN1C(=O)CSc2ccc(S(=O)(=O)N3CCOCC3)cc21` (stereo unspecified), the “activity change, negative = inhibition” value was inactive: -19.4%. In the case of `CCOc1ccccc1N(CC)C(=O)c1cc2c(=O)[nH]c3ccc(C)cc3c2s1`, the Potency is reported as active: 2510 nM. For `COc1ccc(CNC(=O)c2c3c(nc4ccccc24)C(=O)N(C2CCCCC2)C3)c(OC)c1`, the “activity change, negative = inhibition” value was inactive: -11%. In the case of `O=C(Cn1cc(S(=O)(=O)Cc2cccc(Cl)c2)c2ccccc21)NCCc1ccccc1`, the “activity change, negative = inhibition” value is reported as inactive: -1.09%. In the case of `Cc1ccc(NC(=O)/C(C#N)=C/c2ccc(C(C)C)cc2)cc1C`, the “activity change, negative = inhibition” value is reported as inactive: -13.2%. For `CC(=O)Nc1nonc1-c1nnc(SCC(=O)N(C)c2ccccc2)n1C`, the “activity change, negative = inhibition” value was inactive: -28.8%. For `COc1ccc(CNC(=O)C(=O)Nc2ccc(OC)cc2OC)cc1`, the activity change, negative = inhibition was inactive: -14.6% [at 11.5 µM]. In the case of `Cc1nnc(C(C)C)n1C1C[C@H]2CC[C@@H](C1)N2CC[C@H](NC(=O)C1CCC(F)(F)CC1)c1ccccc1` (stereo partly specified), the “activity change, negative = inhibition” value is reported as inactive: -1.31%. In the case of `CCOC(=O)c1cnc2c(C)c(Cl)ccc2c1NCCc1ccccc1`, the “activity change, negative = inhibition” value is reported as inactive: -13.6%. For `CCOc1cccc(NC(=O)CSc2ncc(-c3ccccc3)[nH]2)c1`, the “activity change, negative = inhibition” value was inactive: 20.8%. In the case of `CCCn1cc(S(=O)(=O)c2ccc(CC)cc2)c(=O)c2cc(F)c(N(CC)CC)cc21`, the “activity change, negative = inhibition” value is reported as inactive: -2.89%. In the case of `CCOc1ccc(CNC(=O)c2cc(=O)[nH]c3ccc(S(=O)(=O)N4CCCC4)cc23)cc1`, the “activity change, negative = inhibition” value is reported as inactive: -2.72%. In the case of `COc1ccc(Cl)cc1CNCCSc1nnnn1C`, the “activity change, negative = inhibition” value is reported as inactive: 0.769%. With `CC(=O)c1ccc(N2CCN(C(=O)CCCCn3c(=O)[nH]c4ccccc4c3=O)CC2)cc1` the “activity change, negative = inhibition” value was inactive: -16.5%. In the case of `Cc1ccc(NC(=O)CCC(=O)N2Cc3ccccc3Oc3ncccc32)cc1F`, the “activity change, negative = inhibition” value is reported as inactive: -14%. For `Cc1cccc(Cn2c(=O)n(CCC(=O)NCCc3ccc(Cl)cc3)c(=O)c3sccc32)c1`, the “activity change, negative = inhibition” value was inactive: -25.7%. With `Cc1cc(-c2ccc(C)c(S(=O)(=O)NCC3CCN(Cc4ccc(F)cc4)CC3)c2)on1` the “activity change, negative = inhibition” value was inactive: -26%. In the case of `O=C(O)c1c(CNCc2cccc(F)c2)c2ccccc2n1Cc1ccccc1`, the “activity change, negative = inhibition” value is reported as inactive: -27.4%. In the case of `O=C(NCC(c1ccc2c(c1)OCO2)N1CCOCC1)C(=O)Nc1cccc(Cl)c1` (stereo unspecified), the “activity change, negative = inhibition” value is reported as inactive: -26.2%. With `COc1ccc(OC)c(CNC(=O)c2nn(C)c3c2CSc2ccccc2-3)c1` the “activity change, negative = inhibition” value was inactive: -25.6%. With `CC(=O)c1ccc(NC(=O)c2cc(S(=O)(=O)N3CCCCCC3)cn2C)cc1` the “activity change, negative = inhibition” value was inactive: -8.24%. For `Cc1ccc(NC(=O)CCCc2nnc3n(C)c(=O)c4sccc4n23)cc1F`, the “activity change, negative = inhibition” value was inactive: -6.12%. In the case of `COc1ccc(-c2nc3c(c(SCC(=O)Nc4ccccc4F)n2)Cc2cc(C)ccc2O3)cc1`, the “activity change, negative = inhibition” value is reported as inactive: -2.64%. With `CC(O)Cn1cnc2c1c(=O)n(C)c(=O)n2C` (stereo unspecified) the “activity change, negative = inhibition” value was inactive: -6.83%. With `NC(=O)C1(N2CCCCC2)CCN(C(=O)Nc2ccc(F)cc2)CC1` the “activity change, negative = inhibition” value was inactive: 15.2%. For `CCc1ccccc1NC(=O)CN1C(=O)c2ccccc2Sc2ncccc21`, the “activity change, negative = inhibition” value was inactive: -24.9%. With `CCCNC(=O)c1ccc2c(c1)sc1nc(-c3ccc(C)cc3)cn12` the “activity change, negative = inhibition” value was inactive: 4.11%. With `O=C(CNC(=O)c1ccccc1)OCc1cc(=O)n2ccsc2n1` the “activity change, negative = inhibition” value was inactive: -9.48%. In the case of `CC1CCn2c(nc3cc(C(=O)NCc4ccccc4)ccc32)C1` (stereo unspecified), the “activity change, negative = inhibition” value is reported as inactive: 37.6%. For `Cc1ccc(C)c(N2CCN(C(=O)C3CCCN(Cc4nc(-c5cccc(Cl)c5)oc4C)C3)CC2)c1` (stereo unspecified), the “activity change, negative = inhibition” value was inactive: -5.15%. For `Cc1cc(C)cc(-n2ccn(CC(=O)Nc3cc(C)ccc3C)c(=O)c2=O)c1`, the “activity change, negative = inhibition” value was inactive: -13.1%. With `Cc1cccc(CS(=O)(=O)Cc2ccc(C(=O)NCCc3ccccc3)o2)c1` the “activity change, negative = inhibition” value was inactive: -11.8%. In the case of `Cc1ccc(-c2cn(-c3cccc(Cl)c3)c(S(=O)(=O)CC(=O)Nc3cccc(C)c3)n2)cc1`, the “activity change, negative = inhibition” value is reported as inactive: -22.2%. For `CCOC(=O)c1c(S(=O)(=O)N2CCCC(C(=O)NCc3cccc(OC)c3)C2)c(C)n(C)c1C` (stereo unspecified), the “activity change, negative = inhibition” value was inactive: -8.35%. With `CCOc1ccc(N2CC(c3nc4ccccc4n3Cc3ccccc3F)CC2=O)cc1` (stereo unspecified) the “activity change, negative = inhibition” value was inactive: -35.4%. In the case of `COc1cccc(OC)c1C(=O)Nc1cccc(-c2cn3ccsc3n2)c1`, the “activity change, negative = inhibition” value is reported as inactive: 0.187%. With `CCOC(=O)c1scc(-c2ccc(C)cc2)c1S(=O)(=O)N1CCN(c2ccccc2F)CC1` the “activity change, negative = inhibition” value was inactive: -28.4%. In the case of `Cc1ccc(NC(=O)NCc2cccn2Cc2ccccc2)c(C)c1`, the “activity change, negative = inhibition” value is reported as inactive: 7.92%. With `CCCCCSc1ncnc2c1sc1nc(N3CCOCC3)c3c(c12)CCCC3` the “activity change, negative = inhibition” value was inactive: 9.66%. For `CCC(C)NC(=O)Cn1c(=O)n(-c2ccc(C)c(C)c2)c(=O)c2c3c(sc21)CCCCC3` (stereo unspecified), the “activity change, negative = inhibition” value was inactive: -11%.

Reference: PubChem BioAssay AID1508623 (National Center for Advancing Translational Sciences (NCATS), 2021)
Potency means the concentration at half of the fitted maximal effect.
